How the values were obtained:
[1] = biological target: Ribosomal protein S6 kinase alpha-1 (Homo sapiens) (UniProt Q15418); assay: Inhibition of RSK1 domain1 activation Loop (LTDFGLSKEAIDHEKK) in human PBMC at 1 uM
[2] = biological target: Calcium/calmodulin-dependent protein kinase type II subunit gamma (Homo sapiens) (UniProt Q13555); assay: Inhibition of CaMK2g labeling at conserved Lys1 (TSTQEYAAKIINTK) in human PBMC at 1 uM
[3] = biological target: Ribosomal protein S6 kinase alpha-3 (Homo sapiens) (UniProt P51812); assay: Inhibition of RSK2 domain1 ATP binding site (VLGQGSFGKVFLVK) in human PBMC at 1 uM
[4] = biological target: Kinase suppressor of Ras 1 (Homo sapiens) (UniProt Q8IVT5); assay: Inhibition of KSR1 activation Loop (SKNVFYDNGKVVITDFGLFGISGVVR) in human PBMC at 1 uM
[5] = biological target: Mitogen-activated protein kinase kinase kinase 3 (Homo sapiens) (UniProt Q99759); assay: Inhibition of MAP3K3 conserved Lys2 (DIKGANILR) in human PBMC at 1 uM
Homo sapiens = species: Homo sapiens; assay: Inhibition of p70S6K ATP binding site (GGYGKVFQVR) in human PBMC at 1 uM
[6] = biological target: Tyrosine-protein kinase Fyn (Homo sapiens) (UniProt P06241); assay: Inhibition of FYN activation Loop (QGAKFPIKWTAPEAALYGR) in human PBMC at 1 uM
[7] = biological target: Cyclin-dependent kinase 8 (Homo sapiens) (UniProt P49336); assay: Inhibition of CDK8 labeling at conserved Lys2 (DLKPANILVMGEGPER) in human PBMC at 1 uM
[8] = biological target: Serine/threonine-protein kinase 32C (Homo sapiens) (UniProt Q86UX6); assay: Inhibition of YANK3 conserved Lys2 (DVKPDNILLDER) in human PBMC at 0.1 uM
[9] = biological target: RAC-gamma serine/threonine-protein kinase (Homo sapiens) (UniProt Q9Y243); assay: Inhibition of AKT3 labeling at conserved Lys1 (IGHYILGDTLGVGTFGKVK) in human PBMC at 1 uM
[10] = biological target: 5'-AMP-activated protein kinase catalytic subunit alpha-2 (Homo sapiens) (UniProt P54646); assay: Inhibition of AMPKa2 labeling at conserved Lys2 (DLKPENVLLDAHMNAK) in human PBMC at 0.1 uM
Sequence of UniProt P54646 (P54646 whole entry, looked up): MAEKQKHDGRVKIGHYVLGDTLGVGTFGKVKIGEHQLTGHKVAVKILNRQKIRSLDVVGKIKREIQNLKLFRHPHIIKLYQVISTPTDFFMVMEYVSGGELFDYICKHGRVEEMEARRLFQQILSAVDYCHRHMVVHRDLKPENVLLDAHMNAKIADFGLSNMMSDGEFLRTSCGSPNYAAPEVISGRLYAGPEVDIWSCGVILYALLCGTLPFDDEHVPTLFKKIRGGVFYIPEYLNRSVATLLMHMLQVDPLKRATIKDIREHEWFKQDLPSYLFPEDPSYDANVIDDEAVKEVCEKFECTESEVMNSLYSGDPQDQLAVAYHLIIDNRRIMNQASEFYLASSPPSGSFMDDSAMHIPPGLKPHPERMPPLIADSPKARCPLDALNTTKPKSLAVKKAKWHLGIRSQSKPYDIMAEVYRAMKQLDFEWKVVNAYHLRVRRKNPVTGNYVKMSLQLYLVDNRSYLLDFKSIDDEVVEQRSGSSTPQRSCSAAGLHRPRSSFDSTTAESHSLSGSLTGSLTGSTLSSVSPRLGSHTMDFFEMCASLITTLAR

Sequence of UniProt Q99759 (Q99759 whole entry): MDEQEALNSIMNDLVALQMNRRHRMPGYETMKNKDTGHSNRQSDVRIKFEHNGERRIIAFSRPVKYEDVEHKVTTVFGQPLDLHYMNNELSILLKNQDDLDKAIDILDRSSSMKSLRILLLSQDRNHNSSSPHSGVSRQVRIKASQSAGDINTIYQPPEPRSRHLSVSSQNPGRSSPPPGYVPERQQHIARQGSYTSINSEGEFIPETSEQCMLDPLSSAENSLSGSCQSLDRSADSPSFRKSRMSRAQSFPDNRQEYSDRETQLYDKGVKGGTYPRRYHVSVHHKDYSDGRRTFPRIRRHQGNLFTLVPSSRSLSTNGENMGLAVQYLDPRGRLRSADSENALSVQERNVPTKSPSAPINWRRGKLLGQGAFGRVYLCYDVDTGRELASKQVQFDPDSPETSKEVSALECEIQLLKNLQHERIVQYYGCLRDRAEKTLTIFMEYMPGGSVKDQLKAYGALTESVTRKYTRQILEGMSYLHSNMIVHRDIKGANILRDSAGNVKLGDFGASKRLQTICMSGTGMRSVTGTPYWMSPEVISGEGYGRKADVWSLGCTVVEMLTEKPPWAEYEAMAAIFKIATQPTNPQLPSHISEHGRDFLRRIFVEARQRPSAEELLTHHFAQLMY
Sequence of UniProt Q15418 (Q15418 whole entry, the tested form may be a part): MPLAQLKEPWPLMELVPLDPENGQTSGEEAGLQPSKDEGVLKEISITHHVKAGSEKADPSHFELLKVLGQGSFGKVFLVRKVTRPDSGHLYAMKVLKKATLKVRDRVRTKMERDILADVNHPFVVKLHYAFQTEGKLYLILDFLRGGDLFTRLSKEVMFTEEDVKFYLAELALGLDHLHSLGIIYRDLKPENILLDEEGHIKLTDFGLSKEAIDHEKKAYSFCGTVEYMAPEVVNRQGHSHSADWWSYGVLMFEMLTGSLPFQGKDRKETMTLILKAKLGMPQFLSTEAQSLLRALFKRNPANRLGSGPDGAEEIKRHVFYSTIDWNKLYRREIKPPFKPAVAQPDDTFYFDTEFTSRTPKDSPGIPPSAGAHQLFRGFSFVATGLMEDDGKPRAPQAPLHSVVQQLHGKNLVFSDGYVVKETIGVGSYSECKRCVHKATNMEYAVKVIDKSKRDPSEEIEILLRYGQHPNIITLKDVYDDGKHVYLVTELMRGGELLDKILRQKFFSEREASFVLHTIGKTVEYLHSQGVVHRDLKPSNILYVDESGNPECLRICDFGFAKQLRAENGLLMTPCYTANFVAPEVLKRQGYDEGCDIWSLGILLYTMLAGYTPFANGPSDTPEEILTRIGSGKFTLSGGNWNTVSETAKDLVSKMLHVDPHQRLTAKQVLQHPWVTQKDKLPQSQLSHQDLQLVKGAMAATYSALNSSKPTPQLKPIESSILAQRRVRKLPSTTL
Sequence of UniProt Q9Y243 (Q9Y243 whole entry): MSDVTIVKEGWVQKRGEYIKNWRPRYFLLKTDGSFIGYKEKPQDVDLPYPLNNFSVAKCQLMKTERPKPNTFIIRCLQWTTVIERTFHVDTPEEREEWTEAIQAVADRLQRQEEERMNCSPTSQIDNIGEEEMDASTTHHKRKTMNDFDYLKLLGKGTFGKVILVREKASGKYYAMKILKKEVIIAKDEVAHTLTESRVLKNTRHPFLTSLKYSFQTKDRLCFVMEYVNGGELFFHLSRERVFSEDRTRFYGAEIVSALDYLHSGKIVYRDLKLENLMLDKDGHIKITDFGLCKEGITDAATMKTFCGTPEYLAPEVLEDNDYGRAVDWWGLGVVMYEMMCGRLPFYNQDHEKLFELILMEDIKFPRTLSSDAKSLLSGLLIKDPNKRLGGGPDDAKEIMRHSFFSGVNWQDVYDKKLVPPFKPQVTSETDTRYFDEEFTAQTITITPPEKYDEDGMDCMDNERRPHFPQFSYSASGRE
Sequence of UniProt Q86UX6 (Q86UX6 whole entry): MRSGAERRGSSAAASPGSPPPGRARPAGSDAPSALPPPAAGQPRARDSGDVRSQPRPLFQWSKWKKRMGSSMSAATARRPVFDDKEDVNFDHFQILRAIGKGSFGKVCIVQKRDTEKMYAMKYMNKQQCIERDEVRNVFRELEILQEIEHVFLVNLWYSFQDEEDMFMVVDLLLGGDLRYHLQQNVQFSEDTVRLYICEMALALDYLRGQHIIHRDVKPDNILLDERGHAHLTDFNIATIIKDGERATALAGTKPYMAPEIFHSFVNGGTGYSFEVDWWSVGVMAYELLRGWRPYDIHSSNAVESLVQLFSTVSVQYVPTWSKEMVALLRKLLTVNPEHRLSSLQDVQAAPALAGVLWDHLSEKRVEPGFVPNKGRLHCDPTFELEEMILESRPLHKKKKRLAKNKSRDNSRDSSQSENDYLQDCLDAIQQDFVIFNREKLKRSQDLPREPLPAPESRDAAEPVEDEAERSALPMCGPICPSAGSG
Sequence of UniProt P49336 (P49336 whole entry): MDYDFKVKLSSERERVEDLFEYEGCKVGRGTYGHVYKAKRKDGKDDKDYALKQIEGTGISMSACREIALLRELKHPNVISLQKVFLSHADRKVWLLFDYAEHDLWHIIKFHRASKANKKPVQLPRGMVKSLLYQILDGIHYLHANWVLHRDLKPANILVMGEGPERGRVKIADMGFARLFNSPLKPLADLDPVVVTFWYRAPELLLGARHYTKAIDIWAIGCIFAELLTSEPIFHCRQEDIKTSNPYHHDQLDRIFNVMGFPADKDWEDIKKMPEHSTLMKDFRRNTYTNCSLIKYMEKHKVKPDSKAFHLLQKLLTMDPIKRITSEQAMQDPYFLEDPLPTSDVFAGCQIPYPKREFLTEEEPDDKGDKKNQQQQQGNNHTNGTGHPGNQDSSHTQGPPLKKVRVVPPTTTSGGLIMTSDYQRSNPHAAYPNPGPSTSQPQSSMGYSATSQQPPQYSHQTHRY
Sequence of UniProt P51812 (P51812 whole entry, the tested form may be a part): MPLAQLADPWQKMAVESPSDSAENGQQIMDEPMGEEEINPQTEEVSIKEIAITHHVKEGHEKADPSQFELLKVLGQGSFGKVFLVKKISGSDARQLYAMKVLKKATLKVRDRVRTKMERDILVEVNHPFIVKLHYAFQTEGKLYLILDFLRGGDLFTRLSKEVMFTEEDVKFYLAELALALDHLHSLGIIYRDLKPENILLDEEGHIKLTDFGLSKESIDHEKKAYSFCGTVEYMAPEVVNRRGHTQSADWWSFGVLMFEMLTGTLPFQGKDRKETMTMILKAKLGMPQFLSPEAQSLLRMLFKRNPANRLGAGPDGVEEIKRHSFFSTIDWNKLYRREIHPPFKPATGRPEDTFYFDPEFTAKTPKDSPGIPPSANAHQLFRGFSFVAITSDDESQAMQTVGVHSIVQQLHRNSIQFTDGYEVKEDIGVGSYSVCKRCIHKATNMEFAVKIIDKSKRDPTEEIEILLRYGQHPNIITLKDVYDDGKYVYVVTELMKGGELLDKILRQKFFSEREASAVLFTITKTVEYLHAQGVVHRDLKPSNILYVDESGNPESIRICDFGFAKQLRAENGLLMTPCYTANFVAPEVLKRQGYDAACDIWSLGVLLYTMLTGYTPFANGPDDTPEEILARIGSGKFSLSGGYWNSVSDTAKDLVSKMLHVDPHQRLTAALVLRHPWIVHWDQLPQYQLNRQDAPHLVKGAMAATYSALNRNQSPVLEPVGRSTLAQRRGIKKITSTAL
Sequence of UniProt Q13555 (Q13555 whole entry, the tested form may be a part): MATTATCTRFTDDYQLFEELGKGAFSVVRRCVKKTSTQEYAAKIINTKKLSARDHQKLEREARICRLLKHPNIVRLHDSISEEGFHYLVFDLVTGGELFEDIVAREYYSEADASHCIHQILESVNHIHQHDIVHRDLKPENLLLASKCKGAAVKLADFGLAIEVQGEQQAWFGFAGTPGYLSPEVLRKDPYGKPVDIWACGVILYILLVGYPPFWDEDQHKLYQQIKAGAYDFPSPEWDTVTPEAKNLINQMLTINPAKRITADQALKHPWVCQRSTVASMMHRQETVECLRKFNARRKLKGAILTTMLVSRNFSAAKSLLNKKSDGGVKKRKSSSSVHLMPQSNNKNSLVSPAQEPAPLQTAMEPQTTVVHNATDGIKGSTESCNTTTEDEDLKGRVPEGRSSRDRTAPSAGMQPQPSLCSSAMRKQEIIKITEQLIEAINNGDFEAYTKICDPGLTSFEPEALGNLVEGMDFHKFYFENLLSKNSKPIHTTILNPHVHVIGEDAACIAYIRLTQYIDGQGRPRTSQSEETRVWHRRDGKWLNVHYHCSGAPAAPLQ

CC(C)n1cc(-c2cc(-c3ccc(CN4CCOCC4)cc3)cnc2N)nn1
inhibition [1]: 14.3%
inhibition [2]: -2.1%
inhibition [3]: 23.2%
inhibition [4]: 5.7%
inhibition [5]: 29.2%
inhibition (Homo sapiens): -7.8%
inhibition [6]: -2.3%
inhibition [7]: 1.5%
inhibition [8]: 9.8%
inhibition [9]: 20.5%
inhibition [10]: 14%

Reference: ChEMBL document CHEMBL4043168, “The design and SAR of a novel series of 2-aminopyridine based LRRK2 inhibitors” (Bioorg Med Chem Lett, 2017)
